This passage reports EC50 and IC50 results from patent publication US20240425575A1 (SOTER BIOPHARMA PTE, published 2024).

T1: recombinant human ANG2 protein corresponding to Lys275-Phe496 of human ANG2 (human, UniProt O15123 275-496)
T1 construct: also called hANG2
T1 sequence: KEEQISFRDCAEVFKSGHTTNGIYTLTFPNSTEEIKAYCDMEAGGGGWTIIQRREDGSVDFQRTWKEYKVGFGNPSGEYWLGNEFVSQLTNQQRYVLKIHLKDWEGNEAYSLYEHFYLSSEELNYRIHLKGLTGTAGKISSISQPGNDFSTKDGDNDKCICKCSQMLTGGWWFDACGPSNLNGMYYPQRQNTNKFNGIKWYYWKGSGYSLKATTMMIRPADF

T2: monkey ANG2 protein (monkey (cyno), UniProt O15123 275-496 (human entry), limits assumed)
T2 construct: also called cynoANG2
T2 chain: T1 sequence with I23V, F28L, I35V, G154A, A212G

T3: human ANG2 protein (623-AN-025/CF, R&D) (human, UniProt O15123 19-496, limits assumed)
T3 construct: His-tagged by the anti-His detection; tag not described; also called hANG2
T3 sequence (looked up): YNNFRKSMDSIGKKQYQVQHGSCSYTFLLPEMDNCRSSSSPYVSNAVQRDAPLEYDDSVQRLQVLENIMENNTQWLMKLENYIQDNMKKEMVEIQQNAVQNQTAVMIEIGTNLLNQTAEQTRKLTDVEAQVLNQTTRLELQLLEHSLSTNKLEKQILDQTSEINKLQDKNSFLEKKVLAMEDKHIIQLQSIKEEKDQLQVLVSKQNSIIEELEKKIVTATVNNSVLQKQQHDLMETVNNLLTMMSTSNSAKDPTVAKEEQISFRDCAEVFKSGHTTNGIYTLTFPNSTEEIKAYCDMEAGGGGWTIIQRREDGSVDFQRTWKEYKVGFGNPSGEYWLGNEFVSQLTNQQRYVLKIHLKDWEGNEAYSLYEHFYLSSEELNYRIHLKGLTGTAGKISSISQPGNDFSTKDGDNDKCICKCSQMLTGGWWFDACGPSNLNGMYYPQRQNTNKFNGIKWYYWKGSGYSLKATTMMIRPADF

B1: B1-G8-Fc (Fc fusion)
chain: QVQLVESGGGLVQTGDSLRLSCVAPGISFSNRGMAWYRQAPGKQRELVAAIDSAGSQRYAGSVKDRFTISRDNAKNTVFLQMNSLKPEDTAVYYCNQPRFNLWGQGTQVTVSSGGGGSGGGGSGGGGS[human IgG1 Fc left out]
notes: also called anti-ANG2 heavy-chain single-domain antibody-Fc B1-G8-Fc
B2: B2-F10-Fc (Fc fusion)
chain: QVQLVESGGGLVQAGGSLRLSCGASGSAVSITLMAWYRQAPGKQRELVAGISNIGDTNYVDSVKDRFTISRINAKNAMYLQMNSLKPEDTAVYYCFAQDWGGHHYWGQGTQVTVSSGGGGSGGGGSGGGGS[human IgG1 Fc left out]
notes: also called anti-ANG2 heavy-chain single-domain antibody-Fc B2-F10-Fc
B3: B4-C11-Fc (Fc fusion)
chain: QVQLVESGGGLVQAGGSLRLSCAASGSTFSNVVAGWYRQAPGKQRELVAGISNIGDTRYADSVKGRFTISRDNAKKAVYLQMNSLKPEDTAVYYCYAKYWARDYWGQGTQVTVSSGGGGSGGGGSGGGGS[human IgG1 Fc left out]
notes: also called anti-ANG2 heavy-chain single-domain antibody-Fc B4-C11-Fc
B4: B3-H7-Fc (Fc fusion)
chain: B3 chain with Q1E, L4V, F29A, S30I, V32S, A77T, P87S
notes: also called anti-ANG2 heavy-chain single-domain antibody-Fc B3-H7-Fc
B5: B1-H9-Fc (Fc fusion)
chain: B3 chain with Q1E, G10D, N31S, V32T, V33I, A77T
notes: also called anti-ANG2 heavy-chain single-domain antibody-Fc B1-H9-Fc
B6: B3-C11-Fc (Fc fusion)
chain: EVQLVESGGGLVQAGGSLRLSCFVSGSTFSASLMGWYRQAPGKERELVAGISNIGNTVYADSAKGRFTISRDGAKNTVHLQMNALKPEDTAVYYCYATVPRAAWGQGTQVTVSSGGGGSGGGGSGGGGS[human IgG1 Fc left out]
notes: also called anti-ANG2 heavy-chain single-domain antibody-Fc B3-C11-Fc
B7: B2-A6-Fc (Fc fusion)
chain: B6 chain with E1Q, V2L
notes: also called anti-ANG2 heavy-chain single-domain antibody-Fc B2-A6-Fc
B8: B2-E2-Fc (Fc fusion)
chain: EVQLVESGGGLVQPGESLRLSCVASGFPSGFTFSDYQMYWYRQAPGKERELVAIISNDGLRKTYADSVKGRFTISRDNAKNTMFLQMNSLKPEDTAVYVCNVRRANRDDWGQGTQVTVSSGGGGSGGGGSGGGGS[human IgG1 Fc left out]
notes: also called anti-ANG2 heavy-chain single-domain antibody-Fc B2-E2-Fc
B9: B1-G3-Fc (Fc fusion)
chain: EVQVVESGGGLVQPGGSLRLSCVASMPSGISFSNRGMAWYRQAPGKQRELVAAIDSAGSTRYQDSVKGRFTISRDNAKNTVFLQMNSLKPEDTAVYYCNQPAFKAWGQGTQVTVSSGGGGSGGGGSGGGGS[human IgG1 Fc left out]
notes: also called anti-ANG2 heavy-chain single-domain antibody-Fc B1-G3-Fc
B10: B4-D3-Fc (Fc fusion)
chain: QLQLVESGGGLVQPGGSLRLSCVASGASGISFSNRGMAWYRQAPGKQRELVAAIDSAGSPAYAGSVKGRFTISRDNAKNTVFLQMNSLKPEDTAVYYCNQPRFNLWGLGTQVTVSSGGGGSGGGGSGGGGS[human IgG1 Fc left out]
notes: also called anti-ANG2 heavy-chain single-domain antibody-Fc B4-D3-Fc

Residue numbers refer to the chain shown, from its start.

The term EC50 denotes the midpoint of the concentration-response curve. The term IC50 denotes the midpoint of a concentration-inhibition curve.

In one experiment the target is T1, recombinant human ANG2 protein …. The experiment in a line: ELISA, hANG2 coated, anti-human Fc-HRP. How it is done: (§1) An ELISA plate was coated with an ANG2 protein solution in 2 μL/well and placed overnight at 4° C. Supernatant was discarded, and 300 μL blocking solution (PBS containing 3% BSA) was added to each well and blocked for 2 h at 37° C. The anti-ANG2 heavy-chain single-domain antibodies-Fc were subjected to gradient dilution with a diluent of PBS containing 1% BSA. For example, an initial concentration of dilution was 500 nM, and the anti-ANG2 heavy-chain single-domain antibodies-Fc were diluted 10 times to 8 concentration gradients. The diluted anti-ANG2 heavy-chain single-domain antibodies-Fc were added to wells of the ELISA plate in 200 μL per well and subjected to standing incubation for 2 h at room temperature, and supernatant was discarded. Washing was performed with PBST (PBS contained 0.1% Tween 20) in 200 μL/well three times. Diluted HRP-labeled anti-human Fc secondary antibodies (SIGMA, A8667) were added in a volume of 100 μL/well and incubated for 1 h at room temperature, wherein the secondary antibodies were used after dilution according to 1:20000 with a diluent of PBS containing 1% BSA. Washing was performed with PBST in 200 μL/well five times. A TMB color developing solution (BD, 55214) was added in 100 μL/well, and color developing was performed for 8 min at 37° C. 2M HCl stopping solution was added in 100 μL/well. After the stopping solution was added, values at 450 nm were read with the microplate reader within 30 minutes. The data were analyzed by using GraphPad Prism6.0 software, and the fitting of the affinities was performed to obtain EC50 values. B2-E2-Fc has the highest affinities for the human ANG2 and monkey ANG2 proteins.
(In general: In an ELISA, binding on a coated surface is turned into a signal by an enzyme label.)
In the case of B1, the EC50 stood at 0.0392 nM.

Take B2: the EC50 is 1.11 nM.

Regarding B3, the EC50 stood at 2.27 nM.

For B4, the concentration giving a half-maximal response (EC50) turned out to be 3.51 nM.

Take B5: the EC50 worked out at 2.23 nM.

Consider B6, for which the EC50 came to 0.241 nM.

In the case of B7, the EC50 amounted to 0.262 nM.

Regarding B8, the half-maximal effective concentration (EC50) was determined as 0.00584 nM.

As to B9, the concentration giving a half-maximal response (EC50) is 0.0233 nM.

Consider B10, for which the concentration for a half-maximal effect (EC50) was determined as 0.0424 nM.

In the next experiment the target is T2, monkey ANG2 protein. Kind of experiment: ELISA, cynoANG2 coated, anti-human Fc-HRP. The method, then:
as §1
With B1, a half-maximal response (EC50) required 0.589 nM.

B2 came in with an EC50 of 1.44 nM.

Molecule B3 had a 50% effective concentration (EC50) of 0.542 nM.

Molecule B4 returned an EC50 of 0.93 nM.

B5 returned a concentration giving a half-maximal response (EC50) of 0.673 nM.

The molecule B6 displayed an EC50 of 0.624 nM.

For B7, the response was half-maximal at 0.641 nM (EC50).

In turn, B8 displayed an EC50 of 0.273 nM.

With B9, a half-maximal effect (EC50) was put at 0.306 nM.

As to B10, it took 0.707 nM to reach a half-maximal effect (EC50).

The target of another experiment is T3, human ANG2 protein (623-AN-025/CF, R&D). Kind of experiment: flow cytometry, inhibition of human ANG2 (10 µg/mL) binding to HUVEC cells. How it is done:
HUVEC cells (H-003, Allcells) in a good growth state were prepared into a single cell suspension. After cell counting, the cells were plated in a 96-well plate in 10⁵ cells/well. A final concentration of the human ANG2 protein (623-AN-025/CF, R&D) was 10 μg/mL, which was constant. The antibodies to be detected were added to each well according to an experimental design, respectively. The highest concentration of the antibodies was 1000 nM, the antibodies were subjected to 5-fold dilution in sequence and 7 concentration gradients were set in total, and meanwhile, a blank control and a positive control RG7716 (ATAD00534, Atagenix) were set. After the cells were incubated for 30 min at room temperature, cells in each well were washed three times and resuspended, and fluorescence-labeled secondary antibodies PE anti-His (362603, Biolegend) were added and incubated in darkness for 30 min at room temperature. The cells in each well were washed three times, resuspended and loaded on a flow cytometer for detection.
B8: the IC50 is 11.2 nM.
